Data reported in US20250025454A1 (priority 2021, published 2025).

Assay: Uninfected host cell cytotoxicity counter screen
Format: cell-based
Conditions: human, uninfected HeLa-ACE2 cells

`CCC(CC)COC(=O)[C@H](C)N[P@](=O)(OC[C@H]1O[C@@](C#N)(c2ccc3c(N)ncnn23)[C@H](O)[C@@H]1O)Oc1ccccc1` [Remdesivir] gave a CC50 at 24 h of 8.87 µM.
